According to the supplement of paper PMC12355420:
Structures can show the parent of a compound that is named as a salt. The list shows a part of the results. Many values rest on one well or one pass, so single values are uncertain.

The compounds below were run on HeLa VPS33A reporter cells (assay: relative cell viability (CellMask signal) vs DMSO (fraction of DMSO); HeLa model of a glycosaminoglycan (GAG) storage disease; KI is knock-in and KO knock-out; SDC1 is syndecan 1; higher = less cytotoxic). Settings: 50 µM; 24 h.
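Further: primary screen of an FDA-approved drug library in HeLa reporter cells in 96-well format, CellMask signal normalized to DMSO-treated wells set as 1, under 0.5 deemed highly cytotoxic.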

Row | SMILES | relative cell viability
1 | CC(=O)N1CCN(c2ccc(OCC3COC(Cn4ccnc4)(c4ccc(Cl)cc4Cl)O3)cc2)CC1 (stereo not given) [Ketoconazole] | 0.0222
2 | CN1CCN(CCCN2c3ccccc3Sc3ccc(C(F)(F)F)cc32)CC1 [Trifluoperazine 2HCl] | 0.00599
3 | NC(=O)c1cccc2cn(-c3ccc([C@@H]4CCCNC4)cc3)nc12 | 0.00456
4 | COc1cc2c(Oc3ccc(NC(=O)C4(C(=O)Nc5ccc(F)cc5)CC4)cc3F)ccnc2cc1OCCCN1CCOCC1 | 0.00332
5 | OCc1cc(C(O)CNCCCCCCOCCCCc2ccccc2)ccc1O (stereo not given) [Salmeterol xinafoate] | 0.27
6 | C[C@]12CC[C@H](O)CC1=CC[C@@H]1[C@@H]2CC[C@]2(C)C(c3cccnc3)=CC[C@@H]12 [Abiraterone] | 0.0199
7 | C/C(=C\c1csc(C)n1)[C@@H]1C[C@@H]2O[C@]2(C)CCC[C@H](C)[C@H](O)[C@@H](C)C(=O)C(C)(C)[C@@H](O)CC(=O)N1 [Ixabepilone] | 0.0657
8 | CCCCCOc1ccc(-c2ccc(-c3ccc(C(=O)N[C@H]4C[C@@H](O)[C@@H](O)NC(=O)[C@@H]5[C@@H](O)[C@@H](C)CN5C(=O)[C@H]([C@@H](C)O)NC(=O)[C@H]([C@H](O)[C@@H](O)c5ccc(O)cc5)NC(=O)[C@@H]5C[C@@H](O)CN5C(=O)[C@H]([C@@H](C)O)NC4=O)cc3)cc2)cc1 [Anidulafungin] | 0.00514
9 | COc1cc2c3cc1Oc1c(OC)c(OC)cc4c1[C@@H](Cc1ccc(O)c(c1)Oc1ccc(cc1)C[C@@H]3N(C)CC2)N(C)CC4 [Berbamine hydrochloride] | 0.0281
10 | CC[C@H](C)C[C@H](C)CCCCCCCCC(=O)N[C@H]1C[C@@H](O)[C@@H](NCCN)NC(=O)[C@@H]2[C@@H](O)CCN2C(=O)[C@H]([C@H](O)CCN)NC(=O)[C@H]([C@H](O)[C@@H](O)c2ccc(O)cc2)NC(=O)[C@@H]2C[C@@H](O)CN2C(=O)[C@H]([C@@H](C)O)NC1=O [Caspofungin Acetate] | 0.0959
11 | CO[C@H]1C[C@@H]2CC[C@@H](C)[C@@](O)(O2)C(=O)C(=O)N2CCCC[C@H]2C(=O)O[C@H]([C@H](C)C[C@@H]2CC[C@@H](O)[C@H](OC)C2)CC(=O)[C@H](C)/C=C(\C)[C@@H](O)[C@@H](OC)C(=O)[C@H](C)C[C@H](C)/C=C/C=C/C=C/1C [Rapamycin (Sirolimus)] | 0.00696
12 | COc1ccc(-c2oc3cc(OC)c(OC)c(O)c3c(=O)c2OC)cc1O [Vitexicarpin] | 0.495
13 | CNC(=O)c1cc(Oc2ccc(NC(=O)Nc3ccc(Cl)c(C(F)(F)F)c3)cc2)ccn1 [Sorafenib] | 0.0067
14 | CNCC[C@H](Oc1cccc2ccccc12)c1cccs1 [Duloxetine HCl] | 0.00649
15 | c1coc(CNc2ncnc3[nH]cnc23)c1 [Kinetin] | 0.213
16 | CO[C@@H]1[C@H](OC(=O)/C=C/C=C/C=C/C=C/C(=O)O)CC[C@]2(CO2)[C@H]1[C@@]1(C)O[C@@H]1CC=C(C)C [Fumagillin] | 0.0241
17 | CN(C)CCCN1c2ccccc2CCc2ccc(Cl)cc21 [Clomipramine HCl] | 0.00484
18 | C[C@@H](NCCCc1cccc(C(F)(F)F)c1)c1cccc2ccccc12 [Cinacalcet] | 0.00345
19 | CC(=O)O[C@H]1C(=O)[C@@]2(C)[C@H]([C@H](OC(=O)c3ccccc3)[C@]3(O)C[C@H](OC(=O)[C@H](O)[C@@H](NC(=O)c4ccccc4)c4ccccc4)C(C)=C1C3(C)C)[C@]1(OC(C)=O)CO[C@@H]1C[C@@H]2O [Paclitaxel (Taxol)] | 0.0337
20 | COc1ccccc1OCCNCC(O)COc1cccc2[nH]c3ccccc3c12 (stereo not given) [Carvedilol] | 0.00851

Row | SMILES | relative cell viability
21 | C=C1CCN([C@H](C)[C@](O)(Cn2cncn2)c2ccc(F)cc2F)CC1 [Efinaconazole] | 0.0496
22 | CC(C)C[C@H](NC(=O)[C@H](Cc1ccccc1)NC(=O)c1cnccn1)B(O)O [Bortezomib (PS-341)] | 0.0604
23 | CN(C)CCCOc1nn(Cc2ccccc2)c2ccccc12 [Benzydamine HCl] | 0.179
24 | CCN(CC)CCNC(=O)c1c(C)[nH]c(/C=C2\C(=O)Nc3ccc(F)cc32)c1C [Sunitinib] | 0.00707
25 | CC/C(=C(\c1ccccc1)c1ccc(OCCN(C)C)cc1)c1ccccc1 [Tamoxifen] | 0.00836
26 | Clc1ccc(C(Cn2ccnc2)OCc2c(Cl)cccc2Cl)c(Cl)c1 (stereo not given) [Isoconazole nitrate] | 0.00894
27 | CC(=O)O[C@@]12CO[C@@H]1C[C@H](O)[C@@]1(C)C(=O)[C@H](O)C3=C(C)[C@@H](OC(=O)[C@H](O)[C@@H](NC(=O)OC(C)(C)C)c4ccccc4)C[C@@](O)([C@@H](OC(=O)c4ccccc4)[C@H]21)C3(C)C [Docetaxel Trihydrate] | 0.0673
28 | CCOC(=O)c1c(CSc2ccccc2)n(C)c2cc(Br)c(O)c(CN(C)C)c12 [Arbidol HCl] | 0.0205
29 | CN1[C@@H]2CC[C@H]1C[C@@H](OC(c1ccccc1)c1ccccc1)C2 [Benztropine mesylate] | 0.0579
30 | CCCCc1oc2ccccc2c1C(=O)c1cc(I)c(OCCN(CC)CC)c(I)c1 [Amiodarone HCl] | 0.0389
31 | CC(C)(O)c1ccccc1CC[C@@H](SCC1(CC(=O)O)CC1)c1cccc(/C=C/c2ccc3ccc(Cl)cc3n2)c1 [Montelukast Sodium] | 0.00489
32 | COc1cc2/c(=N/c3ccc(Br)cc3F)nc[nH]c2cc1OCC1CCN(C)CC1 [Vandetanib (ZD6474)] | 0.00872
33 | O=C(/C=C/c1cccc(S(=O)(=O)Nc2ccccc2)c1)NO [Belinostat (PXD101)] | 0.0185
34 | COc1cc2nc(N3CCN(C(=O)C4COc5ccccc5O4)CC3)nc(N)c2cc1OC (stereo not given) [Doxazosin Mesylate] | 0.0045
35 | CCC(C)(C)c1ccc(CC(C)CN2C[C@@H](C)O[C@@H](C)C2)cc1 (stereo not given in full) [Amorolfine HCl] | 0.0104
36 | CC1=C(/C=C/C(C)=C/C=C/C(C)=C/C=C/C=C(C)/C=C/C=C(C)/C=C/C2=C(C)CCCC2(C)C)C(C)(C)CCC1 [Betacarotene] | 0.00852
37 | COc1ccc(C[C@H](N)C(=O)N[C@H]2[C@@H](O)[C@H](n3cnc4c(N(C)C)ncnc43)O[C@@H]2CO)cc1 [Puromycin dihydrochloride] | 0.00643
38 | CC/C=C\C/C=C\C/C=C\C/C=C\C/C=C\CCCC(=O)O [Eicosapentaenoic Acid] | 0.202
39 | O=C(c1ccc(F)c(F)c1Nc1ccc(I)cc1F)N1CC(O)([C@@H]2CCCCN2)C1 [Cobimetinib] | 0.00693
40 | CNCCCN1c2ccccc2CCc2ccccc21 [Desipramine hydrochloride] | 0.0184
